Laboratory results from PubChem BioAssay AID445 (National Center for Advancing Translational Sciences (NCATS), 2006).
The whole screen tested about 110,000 compounds, of which about 40 (0.04%) were called active. This list was built around the results that the source calls inconclusive (neither active nor inactive); the mix of calls is not that of the screen. Calls come from the whole dose curve; as a rule, active = well fitted curve in the direction sought with a large enough effect in the signal ratio (not every such curve was filed as active); inconclusive = small, poorly fitted or top-dose-only effect, or a change in a side signal; inactive = flat fitted curve, though single readings scatter; the % refers to the signal ratio. A potency beside an inconclusive call is a rough fit, not a confirmed value.

Experiment: IkB Signaling;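 for IkBa stabilization activation: 0% = basal untreated cells and 100% = reference inhibitor full response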
Conditions: ABC-DLBCL IkBa-CBG/CBR dual luciferase ratio (green luciferase fused to IkBa over red control in OCI-Ly3 lymphoma cells), 4 h; IkBa stabilization activation: at 57.1 µM (top of the series), scaled: untreated 0%, proteasome inhibitor 100% unless noted
How it was run: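 Curves were fitted separately to fusion (green), unfused (red) and ratio luminescence, then classed by r2, magnitude and activity. Cells: OCI-Ly3, 4 h compound plus doxycycline at 37C; 10 uM MG-132 defined full response.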
Potency is the fitted concentration of half-maximal effect.

Compound	IkBa stabilization activation	Potency
COc1cc(OC)cc(C(=O)OCn2nnc3ccccc3c2=O)c1	inactive	–
CCOC(=O)c1c(-c2ccccc2)csc1NC(=O)c1nc(S(=O)(=O)CC)ncc1Cl	inconclusive: -2.26% [signal inhibitor]	–
O=C(Nc1ccc(N2CCCC2)cc1)c1ccc(Br)o1	inactive	–
Cc1cccc(-c2c3c(=O)n(C)c(=O)n(C)c3cn2-c2cc(N)c(Cl)cc2Cl)c1	inconclusive: -3.27% [signal inhibitor]	–
CCN(c1ccccc1)c1nnc(NC(=O)Nc2cccc(Cl)c2C)s1	inconclusive: 1.57% [signal inhibitor]	–
CC(=O)c1ccc(NC(=O)Nc2nnc(N3CCCC(C)C3)s2)cc1 (configuration not stated)	inconclusive: 9.24% [signal inhibitor]	–
COc1cccc(-c2ccc3ncnc(NCc4ccc(OC)cc4OC)c3c2)c1	inactive: 2.27% [at 11.4 µM, scaled: untreated 0%, proteasome inhibitor 100%]	–
CSc1ccc(-c2nc3ncccn3c2Nc2ccc(C)c(C)c2)cc1	inconclusive: 5.68% [signal inhibitor]	–
Nc1cc(=O)nc(SCC(=O)Nc2cccc(Cl)c2)n1CCc1ccccc1	inconclusive: 5.15% [signal inhibitor]	–
Cc1cc(C)c2c(=O)cc(CSc3nnc(COc4ccccc4C)n3C)[nH]c2c1	inconclusive: 0.98% [signal inhibitor]	–
COc1ccccc1-c1cc(C(F)(F)F)nc(S(=O)(=O)CCCC(=O)Nc2cc(OC)c(OC)c(OC)c2)n1	inactive	–
COc1ccc(CC(=O)NCc2ccc3c(c2)CCN3C(=O)c2ccc(Cl)cc2)cc1OC	inconclusive: 0.068% [signal inhibitor]	–
CCOC(=O)c1ccc(N2C(=O)c3n[nH]c(-c4cccs4)c3C2c2ccc(C(C)C)cc2)cc1 (configuration not stated)	inconclusive: 6.23% [signal inhibitor]	–
Cc1ccc2c(c1)c1c(c(=O)n(-c3ccccc3C)c(=O)n1CC(=O)NCc1ccccc1)n2C	inconclusive: 2.67% [signal inhibitor]	–
CCCC(=O)N1CCc2cc(-c3nc(N)sc3C)ccc21	inactive	–
COC(=O)N1CCC2(CCCN(Cc3nccs3)C2)CC1	inactive: 3.24% [at 11.4 µM, scaled: untreated 0%, proteasome inhibitor 100%]	–
Cc1cc(-c2ccc(C)c(S(=O)(=O)N(C)c3ccc(C)c(C)c3)c2)on1	inconclusive: 9.06% [signal inhibitor]	–
COc1ccccc1NC(=O)Cn1c(=O)n(Cc2ccco2)c(=O)c2cccnc21	inconclusive: 1.44% [signal inhibitor]	–
Cc1ccc(OCCCn2c(CCNC(=O)C3CCCCC3)nc3ccccc32)c(C)c1	inconclusive: 0.446% [signal inhibitor]	–
COC(=O)c1ccc(NCC(=O)c2ccccc2)cc1	inconclusive: 13.4%	–
CCOC(=O)c1c(Oc2ccc(OC)cc2)nnc(-c2ccccc2)c1-c1ccccc1	inconclusive: -1.26% [signal inhibitor]	–

Compound	IkBa stabilization activation	Potency
COc1ccc(-c2nnc3c4ccccc4c(C)nn23)cc1S(=O)(=O)N1CCN(CCO)CC1	inactive	–
Fc1ccc(C(c2nnnn2Cc2ccccc2)N2CCSCC2)cc1 (configuration not stated)	inconclusive: 1.34% [signal inhibitor]	–
Cc1nc2cnc(OCc3ccccc3)nc2n(CCc2ccccc2)c1=O	inactive: 1.13% [at 11.4 µM, scaled: untreated 0%, proteasome inhibitor 100%]	–
CCS(=O)(=O)c1ncc(Cl)c(C(=O)N2CCN(c3cccc(Cl)c3)CC2)n1	inconclusive: -2.93% [signal inhibitor]	–
Cc1cnc(CNc2ncnc3ccc(-c4ccccc4C(F)(F)F)cc23)cn1	inactive: 10.8% [at 11.4 µM, scaled: untreated 0%, proteasome inhibitor 100%]	–
CC(=O)OC(C(=O)NCc1ccco1)c1cccnc1 (configuration not stated)	–	inconclusive: 31.6 µM [rising, partial curve]
Cc1ccc(CNS(=O)(=O)c2cc(C(=O)Nc3cccc(C(F)(F)F)c3)ccc2F)cc1	inconclusive: 3% [signal inhibitor]	–
COc1cccc(C(=O)N(Cc2ccc3c(c2)OCO3)Cc2nc3ccccc3c(=O)[nH]2)c1	inactive	–
Cc1cccc(N2CCN(C3(c4ccccc4)C(=O)c4ccccc4C3=O)CC2)c1C	inconclusive: -2.41% [signal inhibitor]	–
Cc1ccc(S(=O)(=O)N2CCOCC2)cc1C(=O)Nc1ccccc1C(=O)O	inconclusive: -3.29% [signal inhibitor]	–
COC(=O)[C@@H](NC(=O)c1cc(-c2ccccc2)nc2ccccc12)c1ccccc1	inactive	–
O=S(=O)(Nc1ccc2nc(-c3cccc(Cl)c3)oc2c1)c1ccccc1	inconclusive: 1.3% [signal inhibitor]	–
Cc1ccc2onc(CC(=O)N(C)c3ccccc3)c2c1	–	inconclusive: 25.1 µM [signal inhibitor, single point]
COc1ccc(CCNC(=O)c2c(C)nn(-c3ccc(F)cc3)c2-n2cccc2)cc1OC	inconclusive: -1.5% [signal inhibitor]	–
O=C(O)CCC(=O)Nc1ccc(Br)cn1	inconclusive: 2.54% [signal inhibitor]	–
COc1ccc(C)cc1NC(=O)c1cnc2scc(C)n2c1=O	–	inconclusive: 3.16 µM [signal activator, partial curve]
CCc1ccc(NC(=O)Cn2c(=O)oc3cc(S(=O)(=O)N4CCCCCC4)ccc32)cc1	inconclusive: 0.32% [signal inhibitor]	–
CC(C)Sc1ncc(Cl)c(C(=O)Nc2nnc(C(C)C)s2)n1	inconclusive: 0.364% [signal inhibitor]	–
COc1ccc(N2CSC3=C(C#N)C(c4cc(OC)ccc4OC)CC(=O)N3C2)c(OC)c1 (configuration not stated)	–	inconclusive: 12.6 µM [rising, partial curve]
CCOC(=O)c1c(C)oc2c1c1c(c3ccccc32)OCN(Cc2cccnc2)C1	inconclusive: 12% [signal inhibitor]	–
CCOC(=O)c1ccc(NC(=O)CSc2nc3c(c(=O)n2C)SC(C)C3)cc1 (configuration not stated)	inactive	–
